Data on 5 molecules can be found in paper PMC5469495, “MicroRNA319-regulated TCPs interact with FBHs and PFT1 to activate CO transcription and control flowering time in Arabidopsis” (PLoS Genetics, 2017).

No constants are given. Whether binding was seen depends on the method and setting. For some assays here: In cells and extracts the contact can be indirect. Some entries that bind do so weakly or less than the wild type.

First the molecules themselves.
T1: CDF1 (Arabidopsis thaliana) (UniProt Q8W1E3)
T1 sequence: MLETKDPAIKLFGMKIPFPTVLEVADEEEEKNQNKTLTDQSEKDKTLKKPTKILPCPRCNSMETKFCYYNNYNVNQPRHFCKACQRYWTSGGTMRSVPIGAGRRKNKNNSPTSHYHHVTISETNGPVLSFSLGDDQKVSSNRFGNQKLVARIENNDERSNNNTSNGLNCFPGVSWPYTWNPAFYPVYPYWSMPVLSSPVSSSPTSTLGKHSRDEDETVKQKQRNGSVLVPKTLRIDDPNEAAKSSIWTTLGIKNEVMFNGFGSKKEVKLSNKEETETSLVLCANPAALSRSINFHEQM

T2: CDF2 (Arabidopsis thaliana) (UniProt Q93ZL5)
T2 sequence: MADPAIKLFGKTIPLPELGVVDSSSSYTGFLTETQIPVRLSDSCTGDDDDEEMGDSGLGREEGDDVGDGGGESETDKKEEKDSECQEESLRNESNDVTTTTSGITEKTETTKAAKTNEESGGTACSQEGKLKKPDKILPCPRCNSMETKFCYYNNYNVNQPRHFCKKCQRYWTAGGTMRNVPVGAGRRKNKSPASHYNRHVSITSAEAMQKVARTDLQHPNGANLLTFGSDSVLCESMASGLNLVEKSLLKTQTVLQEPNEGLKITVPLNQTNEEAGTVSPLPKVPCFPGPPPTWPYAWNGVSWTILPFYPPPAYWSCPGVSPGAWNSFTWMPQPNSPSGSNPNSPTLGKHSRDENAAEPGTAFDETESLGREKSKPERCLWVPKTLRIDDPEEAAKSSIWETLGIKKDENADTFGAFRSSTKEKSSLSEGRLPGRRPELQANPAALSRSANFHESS

T3: CDF3 (Arabidopsis thaliana) (UniProt Q8LFV3)
T3 sequence: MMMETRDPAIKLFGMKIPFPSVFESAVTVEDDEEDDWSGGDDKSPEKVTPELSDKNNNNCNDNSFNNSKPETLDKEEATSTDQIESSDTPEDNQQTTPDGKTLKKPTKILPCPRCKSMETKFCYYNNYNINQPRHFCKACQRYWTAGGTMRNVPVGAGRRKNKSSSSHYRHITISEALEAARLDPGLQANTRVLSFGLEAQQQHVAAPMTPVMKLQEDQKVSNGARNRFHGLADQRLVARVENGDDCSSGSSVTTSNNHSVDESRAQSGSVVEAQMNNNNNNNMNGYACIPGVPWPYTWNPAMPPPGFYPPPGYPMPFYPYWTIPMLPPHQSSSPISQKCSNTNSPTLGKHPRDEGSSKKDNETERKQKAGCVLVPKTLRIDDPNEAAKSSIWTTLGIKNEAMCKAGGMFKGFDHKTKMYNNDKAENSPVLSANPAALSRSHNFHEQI

T4: PHYTOCHROME AND FLOWERING TIME 1 (Arabidopsis thaliana) (UniProt Q7XYY2)
T4 sequence: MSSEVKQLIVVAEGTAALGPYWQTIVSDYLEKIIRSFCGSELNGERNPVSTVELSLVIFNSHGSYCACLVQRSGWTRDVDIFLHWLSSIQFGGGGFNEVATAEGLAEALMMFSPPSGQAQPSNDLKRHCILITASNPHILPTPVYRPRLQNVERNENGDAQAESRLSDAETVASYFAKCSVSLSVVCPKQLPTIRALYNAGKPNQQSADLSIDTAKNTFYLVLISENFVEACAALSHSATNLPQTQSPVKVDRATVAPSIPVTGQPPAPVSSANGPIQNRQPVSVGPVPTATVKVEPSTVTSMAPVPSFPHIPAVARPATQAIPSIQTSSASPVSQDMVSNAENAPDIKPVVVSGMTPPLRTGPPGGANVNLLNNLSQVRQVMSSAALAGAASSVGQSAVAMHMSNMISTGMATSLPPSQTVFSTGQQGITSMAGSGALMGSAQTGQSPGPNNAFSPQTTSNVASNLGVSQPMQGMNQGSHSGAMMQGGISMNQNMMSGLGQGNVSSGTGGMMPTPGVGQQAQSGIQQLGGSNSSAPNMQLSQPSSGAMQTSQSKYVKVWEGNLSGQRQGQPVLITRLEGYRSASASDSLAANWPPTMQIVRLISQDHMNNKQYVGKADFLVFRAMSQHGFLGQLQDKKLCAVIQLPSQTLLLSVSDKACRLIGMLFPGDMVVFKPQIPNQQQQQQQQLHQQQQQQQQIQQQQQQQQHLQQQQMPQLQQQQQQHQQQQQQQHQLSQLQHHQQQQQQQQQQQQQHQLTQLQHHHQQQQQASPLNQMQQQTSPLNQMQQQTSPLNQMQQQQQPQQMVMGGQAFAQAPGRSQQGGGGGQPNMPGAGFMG

B1: TCP2 (protein, UniProt Q93V43 1-365)
chain: MIGDLMKNNNNGDVVDNEVNNRLSRWHHNSSRIIRVSRASGGKDRHSKVLTSKGPRDRRVRLSVSTALQFYDLQDRLGYDQPSKAVEWLIKAAEDSISELPSLNNTHFPTDDENHQNQTLTTVAANSLSKSACSSNSDTSKNSSGLSLSRSELRDKARERARERTAKETKERDHNHTSFTDLLNSGSDPVNSNRQWMASAPSSSPMEYFSSGLILGSGQQTHFPISTNSHPFSSISDHHHHHPHHQHQEFSFVPDHLISPAESNGGAFNLDFNMSTPSGAGAAVSAASGGGFSGFNRGTLQSNSTNQHQSFLANLQRFPTSESGGGPQFLFGALPAENHHHNHQFQLYYENGCRNSSEHKGKGKN
B2: TCP24 (protein, UniProt Q9C758 1-324)
chain: MEVDEDIELQKHQEQQSRKLQRFSEDNTGLMRNWNNPSSRIIRVSRASGGKDRHSKVLTSKGLRDRRIRLSVATAIQFYDLQDRLGFDQPSKAVEWLINAASDSITDLPLLNTNFDHLDQNQNQTKSACSSGTSESSLLSLSRTEIRGKARERARERTAKDRDKDLQNAHSSFTQLLTGGFDQQPSNRNWTGGSDCFNPVQLQIPNSSSQEPMNHPFSFVPDYNFGISSSSSAINGGYSSRGTLQSNSQSLFLNNNNNITQRSSISSSSSSSSPMDSQSISFFMATPPPLDHHNHQLPETFDGRLYLYYGEGNRSSDDKAKERR
B3: TCP10 (protein, UniProt O82277 1-361)
chain: MGLKGYSVGEGGGEIVEVQGGHIIRATGRKDRHSKVFTSKGPRDRRVRLSAHTAIQFYDVQDRLGYDRPSKAVDWLIKKAKTAIDKLELGETTTTTTRQEPVNTKPESPTLVFQRENNDQTQFVAANLDPEDAMKTFFPATTTTNGGGGTNINFQNYPHQDDNNMVSRTTTPPPNLSQDLGLSLHPFQGNNNTVVVPETNNFTTTHFDTFGRISGWNHHDLTMTSSSSSEHQQQEQEERSNGGFMVNHHPHHHHHQPSMMTLLNSQQQQVFLGGQQQQQQRGTLQSSLFPHSFRSWDHHQTTSDHHHHQNQASSMFASSSQYGSHGMMMMQGLSFPNTTRLLHGEEATQPNSSSSPPNSHL
B4: TCP4-CFP (natural protein, Arabidopsis thaliana, UniProt Q8LPR5 1-420, looked up)
chain: MSDDQFHHPPPPSSMRHRSTSDAADGGCGEIVEVQGGHIVRSTGRKDRHSKVCTAKGPRDRRVRLSAHTAIQFYDVQDRLGFDRPSKAVDWLIKKAKTSIDELAELPPWNPADAIRLAAANAKPRRTTAKTQISPSPPPPQQQQQQQQLQFGVGFNGGGAEHPSNNESSFLPPSMDSDSIADTIKSFFPVIGSSTEAPSNHNLMHNYHHQHPPDLLSRTNSQNQDLRLSLQSFPDGPPSLLHHQHHHHTSASASEPTLFYGQSNPLGFDTSSWEQQSSEFGRIQRLVAWNSGGGGGATDTGNGGGFLFAPPTPSTTSFQPVLGQSQQLYSQRGPLQSSYSPMIRAWFDPHHHHQSISTDDLNHHHHLPPPVHQSAIPGIGFASGEFSSGFRIPARFQGQEEEQHDGLTHKPSSASSISRH
notes: TCP4, Arabidopsis thaliana, At3g15030; FRET donor; source: Arabidopsis protoplast cells, co-expressed
B5: TCP3 (protein, UniProt Q9MAH8 1-391)
chain: MAPDNDHFLDSPSPPLLEMRHHQSATENGGGCGEIVEVQGGHIVRSTGRKDRHSKVCTAKGPRDRRVRLSAPTAIQFYDVQDRLGFDRPSKAVDWLITKAKSAIDDLAQLPPWNPADTLRQHAAAAANAKPRKTKTLISPPPPQPEETEHHRIGEEEDNESSFLPASMDSDSIADTIKSFFPVASTQQSYHHQPPSRGNTQNQDLLRLSLQSFQNGPPFPNQTEPALFSGQSNNQLAFDSSTASWEQSHQSPEFGKIQRLVSWNNVGAAESAGSTGGFVFASPSSLHPVYSQSQLLSQRGPLQSINTPMIRAWFDPHHHHHHHQQSMTTDDLHHHHPYHIPPGIHQSAIPGIAFASSGEFSGFRIPARFQGEQEEHGGDNKPSSASSDSRH

One assay has as its target T1, CDF1 (Arabidopsis thaliana). Nature of the assay: two-hybrid; GAL4-AD and GAL4-BD derivatives co-transformed into yeast strain AH109; grown on SD-L/W, screened on SD-L/W/H or SD-L/W/H/A with 3-AT.
Regarding B1, the binding result is recorded as “no binding”.
For the molecule B2, the binding entry is on record as “no binding”.
The same measure, in the same setting: next, B3: “no binding”.
As to B4, the binding entry is reported as “no binding”.
As to B5, the binding entry is reported as “no binding”.

The target of a further assay is T2, CDF2 (Arabidopsis thaliana). Described as above.
As to B1, the binding result is given as “no binding”.
Same read-out and setting: next, B2: “no binding”.
Still for that read-out and setting: under B3 stands “no binding”; under B4, “no binding”.
On the same count and under the same terms, under B5 stands “no binding”.

A further assay addresses T3, CDF3 (Arabidopsis thaliana). Described as above.
For B1, the binding result is given as “no binding”.
Same read-out and setting: under B2 stands “no binding”; under B3, “no binding”; under B4, “no binding”.
Still for that read-out and setting: under B5 stands “no binding”.

A further assay deals with T4, PHYTOCHROME AND FLOWERING TIME 1 (Arabidopsis thaliana). The description is as above.
For the molecule B1, the binding entry is on record as “binds”.
On the same count and under the same terms, next, B2: “binds”; B3: “binds”; B4: “binds”.
Same read-out and setting: under B5 stands “binds”.

The next assay deals with T1, CDF1 (Arabidopsis thaliana). Kind of assay: split reporter; LUC complementation imaging (LCI): nLUC and cLUC fusions co-infiltrated by Agrobacterium into N. benthamiana leaves; LUC activity 48 h after infiltration.
On to B4, for which the binding entry is recorded as “no binding”.

The next assay deals with T2, CDF2 (Arabidopsis thaliana). The assay is described as above.
Consider B4, for which the binding result is given as “no binding”.

For a further assay, the target named is T3, CDF3 (Arabidopsis thaliana). The description is as above.
Turning to B4, the binding result is recorded as “no binding”.

Another assay concerns the target T4, PHYTOCHROME AND FLOWERING TIME 1 (Arabidopsis thaliana). Described as above.
For B1, the binding result is “binds”.
Still for that read-out and setting: next, B2: “binds”; B3: “binds”.
Same read-out and setting: under B4 stands “binds”; under B5, “binds”.

The target is the same in a further assay. Kind of assay: co-IP; GFP- and Myc-fused proteins transiently co-expressed in N. benthamiana leaves, collected 48 h after infiltration; anti-GFP- or anti-Myc-conjugated agarose beads; lysis buffer 50 mM Tris-HCl pH 7.5, 150 mM NaCl, 5 mM EDTA, 0.1% Triton X-100, 0.2% NP-40.
As for B4, the binding result is “binds”.
